Results taken from the supplement of paper PMC3334620.
Over roughly 33,000 sequences, “E-score (-0.5 to 0.5)” has its median near -0.01; the highest 2% begin near 0.26. This is one part of the list.

target: Ste12 (UniProt P13574); assay: PBM E-score (8-mer binding enrichment) (E-score (-0.5 to 0.5)); higher = stronger / more preferred TF binding; most listed sequences are background and not binding sites; conditions: protein concentration: 200 nM; construct: GST-DNA-binding domain
Procedure, shortened: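 GST-tagged yeast TFs (full-length or DNA-binding domain) were made by PURExpress in vitro transcription/translation and applied at about 100-200 nM to universal all-10-mer Agilent arrays. The arrays were made double-stranded by primer extension, on fresh or once-stripped slides. Bound protein was detected with fluorescent anti-GST, and scans were normalised with masliner. Each ungapped eight-base word, pooled with its reverse complement, received an E-score (modified Wilcoxon-Mann-Whitney statistic) from the Universal PBM Analysis Suite.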

Sequence	PBM E-score
CGATGTAA	-0.0249
GGATCTAC	-0.172
ATACAAGA	-0.0485
ACGCGTAG	-0.129
CATCACGG	-0.0401
CTCCATCC	-0.16
AACAACCA	0.0498
GGTATGGA	0.0631
CTAAGCAC	-0.0297
GACTAGGC	-0.0762
TCGAAAGA	0.127
CCCAATGA	-0.153
AAGGTGCT	-0.0924
CGCAAGTC	-0.147
AGTGTATC	0.141
CCCTTGCG	-0.0882
ATGCGTAA	0.0221
TATACCCA	-0.0142
AGAGCACT	-0.0697
CGGGTATA	0.0149
AGGGTCGG	-0.154
GCCCACTA	-0.15
AGCCTATA	0.0978
CCGCTGGC	-0.159
GAAACACC	0.311

Sequence	PBM E-score
CATAAGGG	0.183
AGTGAGAT	-0.0563
AATTGATC	0.0104
AGTCCCCG	-0.0595
GCCGAGCC	-0.0318
ACACTCGA	-0.0149
GTTAGTTA	0.0712
AATAGATG	0.0897
CGTGCTGC	-0.0856
AACTGATA	0.14
CTGCAACC	0.0045
CATTTGAA	0.226
CTCTCCGC	-0.0466
GTACTTTA	0.0246
CCCAGCCG	-0.0277
CACTGTCC	-0.148
TAGTGAAA	0.324
CGTACTAG	-0.289
GGACCTTA	-0.12
CCCTAGGC	-0.136
AAACTCTG	0.0406
CGGGCACC	-0.126
AAAAGTTC	0.0553
ATTTTCTA	0.221
GGTACCAA	-0.0343

Sequence	PBM E-score
ATGACCGA	-0.0095
CTACCCGA	-0.044
AGAGGCGG	0.0263
CACGCAAA	0.195
AATTTCCA	0.0904
GGTAGGCA	-0.193
CAGCTTAC	0.0225
AAGTCCAA	-0.127
ATCGTACC	-0.102
AGCTGCTC	-0.174
AAAGGTGC	0.0479
GGGACTAA	-0.216
GCACGGAA	-0.0629
GCGCATCA	0.121
CGAGTTGA	0.113
AAAAGGGC	-0.0012
AGGTAGAA	0.0137
ACTTTCTA	-0.0682
GAAACAAC	0.334
CGAGCTGC	0.0998
TAAGACCA	-0.00351
ACATACGG	-0.133
CTCCACCA	0.00862
GGTCTAAA	0.077
GGACCAGA	-0.091

Sequence	PBM E-score
GGAGGACA	-0.106
ATGCTTCA	0.00041
AATGGCAT	0.152
AATACTGA	0.131
AACGACCA	-0.0479
GGGGGCTA	-0.209
AGAACTGG	-0.0181
CGTCGGAC	-0.0707
AAGCGACC	-0.00892
TACAGGGA	-0.185
GAGGATGA	-0.00618
AGACCATC	-0.0699
CAGGTCTA	-0.0792
AACCATTA	0.17
AGGAGCTC	-0.00475
CCGGTCTA	-0.191
CTACGACC	-0.133
AGCTCCGG	0.063
CACTCCTC	0.12
CAGTGTAA	0.194
GGCACAAA	0.0876
GACAAAGA	0.0123
CACGAGCG	-0.0794
GGACCCAC	-0.162
CTAGACCA	-0.044

Sequence	PBM E-score
CTGGTCAA	0.111
ATTTAGAA	-0.00027
CCGTACCG	-0.214
CGGCCTGA	-0.152
AAGCGGCC	-0.152
ATACACCG	-0.0613
ATATTATA	0.18
ACGGAAGA	-0.0013
CTTGGAGA	-0.0648
CCTAATCG	0.0143
CTTTTGAA	0.0752
CGCGAAAA	0.212
ACTAACAC	0.0112
AGTTAAGC	-0.00263
CTAATGAA	0.247
AAAGATAG	-0.0536
AACGCATC	-0.0761
AAGTCTCA	-0.0462
AGAAATCG	0.0545
GACTCATA	-0.274
CGGCGCTC	0.0768
TCGCGTAA	0.16
CTGATACC	0.0308
GTCCAGCA	-0.189
AGTCTCGA	0.133

Sequence	PBM E-score
CTTCTCCC	-0.203
CGGTGCTC	-0.00907
AACGGAAA	0.259
CAGGCCCG	-0.0673
ACATACTG	0.0511
CACTCACG	0.0402
ATAATACG	0.0652
CGATCTTC	-0.0861
AACTACGG	-0.174
AACGCTCT	-0.187
AGGAGGTC	-0.152
CAGCCCAG	-0.136
CCCCGTTA	-0.00038
AAATTTGA	0.123
CTTACAAG	-0.0736
ACATACCT	-0.0117
GCGATTCC	-0.0698
GTACTGAC	-0.158
GAGACTAA	0.00829
CTAGTCAG	-0.209
GCCGCGGA	0.0303
CGGGCAGC	-0.133
CACCCGCG	0.207
AGCCGTTA	-0.0092
GCGGGTCA	0.0587

Sequence	PBM E-score
TATAGGGA	-0.0469
CGGATCCG	-0.127
GGCCCTAA	-0.0672
CAGAGTCA	-0.136
TATTCCCA	-0.00817
AGATGGTC	-0.116
ACTTACAA	0.189
AAGAGTAA	0.119
ATTCCTCG	0.12
AACCGTAT	-0.149
CAACACCG	-0.103
CTATAGTC	-0.0381
CTTACTCC	-0.0224
ATGGGTAA	-0.12
GTGGCAAC	-0.143
ACTCCCCA	-0.0647
AGTGTCTA	-0.191
CCGCCCCA	0.417
CGTAATCA	0.0585
AGAAAGCG	0.0749
ACTTCGGA	0.0657
CCCTATGC	-0.094
